According to the supplement of paper PMC4967469:
Lines with a small IC50 respond at low doses; a limit (>, <) means that the fit lies beyond the doses tested. AUC is the area under the same curve over the 256-fold range up to the top dose, as a fraction; values near 1 show little effect. A top dose marked as inferred was calculated from the reported fits.

Assays:
Assay in all cases: Viability of human cancer cell lines after 72 h of drug (GDSC screen)
XMD14-99 = compound: COc1cc(N2CCN(C)CC2)ccc1Nc1nc(N)c(C(=O)c2c(Cl)cccc2Cl)s1 [XMD14-99]; conditions: top dose 10.24 µM; top dose inferred
Method: (§1)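 Human cancer cell lines in 384-well plates, medium with 10% serum, drug for 72 h over a 256-fold dose range (nine 2-fold or five 4-fold steps up to the top dose). Adherent lines were fixed and stained with the nucleic acid dye Syto60, suspension lines read with resazurin; signal relative to control wells, capped at 0 and 100%. One two-parameter sigmoid per drug and line, fitted in a mixed model over all curves with the slope shared within a line.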

FH535 = compound: Cc1cc([N+](=O)[O-])ccc1NS(=O)(=O)c1cc(Cl)ccc1Cl [FH535]; conditions: top dose 32 µM; top dose inferred
Method: as §1

AT-7519 = compound: O=C(NC1CCNCC1)c1n[nH]cc1NC(=O)c1c(Cl)cccc1Cl [AT-7519]; conditions: top dose 10.24 µM; top dose inferred
Method: as §1

| Cell Line | AUC (XMD14-99) | IC50 (XMD14-99) [µM] | AUC (FH535) | IC50 (FH535) [µM] | AUC (AT-7519) | IC50 (AT-7519) [µM] |
| --- | --- | --- | --- | --- | --- | --- |
| CHSA8926 (chondrosarcoma, adherent) | 0.97 | > 10.2 | 0.836 | > 32 | 0.689 | 2.73 |
| COLO-205 (large intestine, suspension) | 0.963 | > 10.2 | 0.545 | 2.65 | 0.599 | 1.19 |
| COLO-678 (large intestine, semi-adherent) | 0.982 | > 10.2 | 0.73 | 11.1 | 0.911 | > 10.2 |
| COLO-679 (melanoma, adherent) | 0.977 | > 10.2 | 0.527 |  | 0.642 | 1.66 |
| COLO-680N (oesophagus, adherent) | 0.986 | > 10.2 | 0.732 | 10.5 | 0.726 | 3.21 |
| COLO-783 (melanoma, adherent) | 0.99 | > 10.2 | 0.913 | > 32 | 0.857 | 7.82 |
| COLO-792 (melanoma, adherent) | 0.951 | > 10.2 | 0.396 | 1.04 | 0.851 | 7.66 |
| COR-L23 (large cell lung carcinoma, adherent) | 0.963 | > 10.2 | 0.55 | 2.73 | 0.458 | 0.495 |
| COR-L105 (lung adenocarcinoma, adherent) | 0.957 | > 10.2 | 0.638 | 5.27 | 0.736 | 3.58 |
| CP50-MEL-B (melanoma, adherent) | 0.988 | > 10.2 | 0.378 | 0.926 | 0.87 | 9.35 |
| CS1 (bone, adherent) | 0.982 | > 10.2 | 0.691 | 7.35 | 0.684 | 2.24 |
| Ca9-22 (head and neck, adherent) | 0.988 | > 10.2 | 0.646 | 4.91 | 0.63 | 1.42 |
| Ca-Ski (cervix, adherent) | 0.959 | > 10.2 | 0.764 | 13 | 0.369 | 0.265 |
| CaR-1 (large intestine, adherent) | 0.975 | > 10.2 | 0.733 | 13.2 | 0.71 | 3.44 |
| Calu-3 (lung adenocarcinoma, adherent) | 0.983 | > 10.2 | 0.561 | 3.07 | 0.924 | > 10.2 |
| Caov-3 (ovary, adherent) | 0.987 | > 10.2 | 0.907 | > 32 | 0.693 | 2.06 |

| Cell Line | AUC (XMD14-99) | IC50 (XMD14-99) [µM] | AUC (FH535) | IC50 (FH535) [µM] | AUC (AT-7519) | IC50 (AT-7519) [µM] |
| --- | --- | --- | --- | --- | --- | --- |
| Caov-4 (ovary, adherent) | 0.954 | > 10.2 | 0.872 | > 32 | 0.647 | 1.98 |
| Capan-2 (pancreas, adherent) | 0.974 | > 10.2 | 0.683 | 7.33 | 0.957 | > 10.2 |
| ChaGo-K-1 (non-small cell lung carcinoma, adherent) | 0.985 | > 10.2 | 0.614 | 4.33 | 0.639 | 1.65 |
| DAN-G (pancreas, adherent) | 0.987 | > 10.2 | 0.415 | 1.21 | 0.655 | 1.62 |
| DBTRG-05MG (glioma, adherent) | 0.977 | > 10.2 | 0.719 | 9.4 | 0.797 | 5.78 |
| DK-MG (glioma, adherent) | 0.826 | > 10.2 | 0.761 | 17 | 0.85 | > 10.2 |
| DMS-53 (small cell lung carcinoma, adherent) | 0.979 | > 10.2 | 0.302 | 0.532 | 0.988 | > 10.2 |
| DMS-273 (small cell lung carcinoma, adherent) | 0.978 | > 10.2 | 0.341 | 0.701 | 0.978 | > 10.2 |
| DOK (head and neck, adherent) | 0.976 | > 10.2 | 0.751 | 15.6 | 0.611 | 1.5 |
| DU-145 (prostate, adherent) | 0.985 | > 10.2 | 0.619 | 4.43 | 0.958 | > 10.2 |
| Daoy (medulloblastoma, adherent) | 0.987 | > 10.2 | 0.636 | 4.57 | 0.683 | 1.97 |
| Detroit562 (head and neck, adherent) | 0.988 | > 10.2 | 0.658 | 5.37 | 0.921 | > 10.2 |
| DoTc2-4510 (cervix, adherent) | 0.986 | > 10.2 | 0.463 | 1.6 | 0.733 | 2.83 |
| EBC-1 (lung squamous cell carcinoma, adherent) | 0.979 | > 10.2 | 0.633 | 4.91 | 0.774 | 4.56 |
| ECC10 (stomach, suspension) | 0.973 | > 10.2 | 0.665 | 5.89 | 0.663 | 1.86 |
| EFM-19 (breast, adherent) | 0.977 | > 10.2 | 0.635 | 5.73 | 0.758 | 5.4 |
